We go through two molecules from patent US7235366B1 (priority 1993, dated 2007).

In this experiment the target is human μ receptor (Homo sapiens, UniProt P35372).
human μ receptor, sequence (P35372 whole entry): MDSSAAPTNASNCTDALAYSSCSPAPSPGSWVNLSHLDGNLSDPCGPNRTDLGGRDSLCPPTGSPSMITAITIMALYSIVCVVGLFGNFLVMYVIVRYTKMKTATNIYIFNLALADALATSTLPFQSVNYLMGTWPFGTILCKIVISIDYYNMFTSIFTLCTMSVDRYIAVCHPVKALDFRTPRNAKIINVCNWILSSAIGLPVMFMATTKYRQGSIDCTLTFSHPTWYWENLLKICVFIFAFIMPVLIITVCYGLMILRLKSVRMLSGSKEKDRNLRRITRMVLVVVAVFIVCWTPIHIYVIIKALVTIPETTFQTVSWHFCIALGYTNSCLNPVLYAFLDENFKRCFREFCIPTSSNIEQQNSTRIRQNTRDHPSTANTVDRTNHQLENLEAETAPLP

Regarding `CN1CC[C@]23CCCC[C@H]2[C@H]1Cc1ccc(O)cc13` [Levorphanol], the “Effect on forskolin-stimulated cAMP accumulation, human μ receptor” value was “decreased cAMP accumulation”.
In the case of Leu-enkephalin it was “significantly reduced”.
